In PubChem BioAssay AID588342 (National Center for Advancing Translational Sciences (NCATS), 2011):
The campaign covered roughly 360,000 compounds. About 25,000 (6.9%) were called active. This list was built around the results that the source calls inconclusive (neither active nor inactive); the mix of calls is not that of the screen. Calls follow the shape of the dose curve; as a rule, active = well fitted inhibition curve with a large enough effect; inconclusive = small, poorly fitted or top-dose-only effect; inactive = flat fitted curve, though single readings scatter. Where the call is inconclusive, the potency comes from a doubtful curve fit.
Also: nearly all actives have a fitted effect of over 55% in size.
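For activity change, negative = inhibition in this document: plate controls were vehicle for no effect and reference inhibitor for full effect.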
Potency is read from the fitted curve at half-maximal effect; tags tell the direction and shape of the fitted curve.

What follows are molecules tested against Luciferin 4-monooxygenase (Photinus pyralis) (UniProt P08659) (assay: qHTS profiling assay for firefly luciferase inhibitor/activator using purifed enzyme and Km concentrations of substrates (counterscreen for miR-21 project)). Conditions: purified FLuc, luminescence inhibition; series mostly up to 57.5 µM; activity change, negative = inhibition: at the top concentration.
UniProt P08659, sequence (P08659 whole entry, looked up): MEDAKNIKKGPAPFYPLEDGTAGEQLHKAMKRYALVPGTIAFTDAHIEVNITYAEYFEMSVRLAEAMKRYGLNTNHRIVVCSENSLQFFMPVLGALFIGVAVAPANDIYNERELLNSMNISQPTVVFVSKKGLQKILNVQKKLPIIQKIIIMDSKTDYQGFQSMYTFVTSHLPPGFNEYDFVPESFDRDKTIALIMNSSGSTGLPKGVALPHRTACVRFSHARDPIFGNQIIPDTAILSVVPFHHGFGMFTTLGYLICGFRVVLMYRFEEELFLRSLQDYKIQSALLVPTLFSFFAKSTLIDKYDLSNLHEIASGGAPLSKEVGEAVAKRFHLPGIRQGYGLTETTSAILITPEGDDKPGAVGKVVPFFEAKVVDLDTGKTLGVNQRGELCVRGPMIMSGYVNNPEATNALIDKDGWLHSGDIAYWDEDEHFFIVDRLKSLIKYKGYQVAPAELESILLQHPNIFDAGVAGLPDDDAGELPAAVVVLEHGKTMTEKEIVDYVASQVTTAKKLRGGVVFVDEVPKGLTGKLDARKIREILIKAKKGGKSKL
In short: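 Purified P. pyralis luciferase (10nM final) with 10uM D-luciferin and 10uM ATP (Km levels) in 50mM Tris acetate pH 7.5, 10mM Mg acetate, 0.01% Tween-20, 0.05% BSA; qHTS 6-point titration, ~60 µM downward; luminescence read.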
For `Cc1ccc(CCNC(=O)c2ccc3c(Cl)c4c(nc3c2)CCCC4)cc1`, the “activity change, negative = inhibition” value was inactive: -1.19%. `O=c1[nH]cnc2cc(-c3ccccc3)sc12` was tested, and the Potency was active: 12 µM. With `COc1ccccc1CNC(=O)c1ccc2nc(N3CCCCC3)sc2c1` the Potency was inconclusive: 16.9 µM [inhibitor, partial curve]. With `CN(C)/C=N/c1nc(-c2ccc3c(c2)OCO3)cs1` the Potency was active: 16.9 µM. With `COc1cccc(/C=C/C(=O)OCC(=O)N2c3ccccc3CC2C)c1OC` (stereo not given) the Potency was inconclusive: 15.1 µM [inhibitor, partial curve, poor fit]. `c1ccc2cc(CSCc3nc4ccccc4[nH]3)ccc2c1` was tested, and the Potency was inconclusive: 37.9 µM [inhibitor, partial curve, poor fit]. In the case of `COc1ccc(OC)c(Nc2nc(-c3cccs3)cs2)c1`, the Potency is reported as inconclusive: 26.9 µM [inhibitor, single point]. With `CSc1ccc(/C=C/C(=O)c2ccc(NC(C)=O)cc2)cc1` the Potency was active: 3.01 µM. With `O=C(O)CC1S/C(=N/N=C/c2ccc(-c3ccccc3[N+](=O)[O-])o2)NC1=O` (stereo not given) the Potency was inconclusive: 26.9 µM [inhibitor, single point]. In the case of `Cc1cc(C(=O)CN2C(=O)NC3(CCCc4ccccc43)C2=O)c(C)n1Cc1ccco1` (stereo not given), the Potency is reported as inconclusive: 4.78 µM [inhibitor, partial curve, poor fit]. `CC1(C)CC(=O)C/C(=N\NC(=O)c2cccs2)C1` was tested, and the Potency was inconclusive: 21.3 µM [inhibitor, partial curve, poor fit]. `O=C1/C(=C/c2ccc3c(c2)OCO3)Oc2cc(OCC(=O)N3CCC[C@H]3C(=O)O)ccc21` was tested, and the Potency was active: 0.536 µM. With `CCN1/C(=C/C(C)=C/c2sc3ccccc3[n+]2CC)Sc2ccccc21` the Potency was inconclusive: 19 µM [inhibitor, partial curve]. In the case of `Oc1[nH]c2ccccc2c1N=Nc1c(F)c(F)c(C(F)(F)F)c(F)c1F`, the “activity change, negative = inhibition” value is reported as inactive: 0.995%. With `Cc1c(C(=O)Nc2ccc(C(=O)O)cc2)nnn1-c1ccccc1` the Potency was active: 0.269 µM. `N#CC/C(N)=N/NC(=O)CCCNc1ncc(C(F)(F)F)cc1Cl` was tested, and the “activity change, negative = inhibition” value was inactive: -2.37%. For `CC1CCCC(C)N1C(=O)CSc1nnc(-c2c[nH]c3ccccc23)o1` (stereo not given), the Potency was inconclusive: 7.57 µM [inhibitor, partial curve, poor fit]. `CCCOc1ccc(-c2nc(C#N)c(N3CCN(CC)CC3)o2)cc1` was tested, and the Potency was inconclusive: 21.3 µM [inhibitor, partial curve, poor fit]. With `CNC(=S)N/N=C(\C)c1ccc(Cl)s1` the “activity change, negative = inhibition” value was inactive: 7.81%. With `O=C(CSc1nc(-c2ccc(F)cc2)cs1)N1CCOCC1` the Potency was inconclusive: 37.9 µM [inhibitor, single point].
